In the supplement of paper PMC10369915 one finds enrichment score data, which are given here for 19 molecules.

This is one part of the list. No stated cut-off is given here; in the data, active = 3.2 or more and inactive = the rest. Most of these values are background signal.
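Further: displayed peptides selected on beads carrying the immobilized SH2 domain, with library peptides lacking any tyrosine serving as negative controls.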

The target of the first assay is SHP2 C-SH2 domain E139D. Nature of the assay: enrichment score (SH2-bound / input frequency) (ratio); bacterial display of known human phosphotyrosine sites (pTyr-Var adds point mutants) read by sequencing; higher = stronger binding; tyrosines were phosphorylated by kinases first. The settings on record: peptide library: pTyr-Var.
For RRNEEYCLLAS [ITK_Y198_D202A], the enrichment score is inactive: 0.147.
As for LIDGFYRLTAD [JAK2_Y373_YF], the enrichment score is inactive: 0.831.
On to VTRLRYPVCFG [ITK_Y336], for which the enrichment score was inactive: 2.19.
Still for that read-out and setting: to SLIDGYYRLTE [JAK2_Y372_A377E] belongs inactive: 0.997; to PLGVPYLDKPP [JMJD7_Y31_A28G], inactive: 0.915.
Turning to MEKEKYVSYIS [JMJD1C_Y596], the enrichment score was inactive: 0.793.
Regarding PLAVPYLDKPP [JMJD7_Y31], the enrichment score was inactive: 1.12.
The same measure, in the same setting: the figure for RRNEEYCLLDS [ITK_Y198] is inactive: 0.272.
The same measure, in the same setting: to LSVEIYDRREF [ITGB7_Y753_YF] belongs inactive: 0.777.
Regarding ENKGVYVPMSG [IVD_Y277_L279P], the enrichment score is inactive: 0.508.
As for VEKEKYVSFIS [JMJD1C_Y596_M591V_YF], the enrichment score was inactive: 0.771.
Still for that read-out and setting: the figure for MEKEKYVSFIS [JMJD1C_Y596_YF] is inactive: 0.794; for HLVLNYGVCFC [JAK2_Y613_V617F] it is inactive: 1.27.
Take ASTHVYQIMNH [ITK_Y588]: the enrichment score is inactive: 1.05.
Still for that read-out and setting: to WFPANYVKLLS [ITSN1_Y1132] belongs inactive: 1.44.
On the same count and under the same terms, to HSVLNYGVCVC [JAK2_Y613_L609S] belongs inactive: 0.8; to KLIMECLPYGS [JAK2_Y931_Y931C], inactive: 0.645.
As to ASTHIYQIMNH [ITK_Y588_V587I], the enrichment score was inactive: 2.04.
Regarding ENKGVYVLMSG [IVD_Y277], the enrichment score was inactive: 1.15.

A further assay deals with SHP2 C-SH2 domain wild-type. The description is as above. The settings on record: peptide library: pTyr-Var.
For RRNEEYCLLAS [ITK_Y198_D202A], the enrichment score is inactive: 0.143.
Still for that read-out and setting: the figure for LIDGFYRLTAD [JAK2_Y373_YF] is inactive: 0.837.
VTRLRYPVCFG [ITK_Y336]: the enrichment score was inactive: 1.94.
Regarding SLIDGYYRLTE [JAK2_Y372_A377E], the enrichment score was inactive: 0.789.
For the molecule PLGVPYLDKPP [JMJD7_Y31_A28G], the enrichment score is inactive: 1.
Same read-out and setting: the figure for MEKEKYVSYIS [JMJD1C_Y596] is inactive: 0.906; for PLAVPYLDKPP [JMJD7_Y31] it is inactive: 0.837.
In the case of RRNEEYCLLDS [ITK_Y198], the enrichment score was inactive: 0.301.
Same read-out and setting: to LSVEIYDRREF [ITGB7_Y753_YF] belongs inactive: 0.826.
As for ENKGVYVPMSG [IVD_Y277_L279P], the enrichment score is inactive: 0.706.
On the same count and under the same terms, the figure for VEKEKYVSFIS [JMJD1C_Y596_M591V_YF] is inactive: 0.721; for MEKEKYVSFIS [JMJD1C_Y596_YF] it is inactive: 0.558; for HLVLNYGVCFC [JAK2_Y613_V617F] it is inactive: 2.06.
ASTHVYQIMNH [ITK_Y588]: the enrichment score is inactive: 0.978.
As to WFPANYVKLLS [ITSN1_Y1132], the enrichment score was inactive: 2.44.
On the same count and under the same terms, the figure for HSVLNYGVCVC [JAK2_Y613_L609S] is inactive: 0.912; for KLIMECLPYGS [JAK2_Y931_Y931C] it is inactive: 0.871; for ASTHIYQIMNH [ITK_Y588_V587I] it is inactive: 1.63.
As to ENKGVYVLMSG [IVD_Y277], the enrichment score was inactive: 0.855.

In the next assay the target is SHP2 N-SH2 domain L43F. The assay is described as above. The settings on record: peptide library: pTyr-Var.
Take RRNEEYCLLAS [ITK_Y198_D202A]: the enrichment score is inactive: 0.217.
Still for that read-out and setting: to LIDGFYRLTAD [JAK2_Y373_YF] belongs inactive: 1.31.
For the molecule VTRLRYPVCFG [ITK_Y336], the enrichment score was inactive: 1.96.
For the molecule SLIDGYYRLTE [JAK2_Y372_A377E], the enrichment score is inactive: 0.793.
Same read-out and setting: the figure for PLGVPYLDKPP [JMJD7_Y31_A28G] is inactive: 0.942; for MEKEKYVSYIS [JMJD1C_Y596] it is inactive: 0.7; for PLAVPYLDKPP [JMJD7_Y31] it is inactive: 0.98.
The same measure, in the same setting: to RRNEEYCLLDS [ITK_Y198] belongs inactive: 0.287; to LSVEIYDRREF [ITGB7_Y753_YF], inactive: 0.643.
ENKGVYVPMSG [IVD_Y277_L279P]: the enrichment score was inactive: 0.65.
Still for that read-out and setting: the figure for VEKEKYVSFIS [JMJD1C_Y596_M591V_YF] is inactive: 0.693.
On the same count and under the same terms, the figure for MEKEKYVSFIS [JMJD1C_Y596_YF] is inactive: 0.851; for HLVLNYGVCFC [JAK2_Y613_V617F] it is inactive: 1.62; for ASTHVYQIMNH [ITK_Y588] it is inactive: 0.928.
In the case of WFPANYVKLLS [ITSN1_Y1132], the enrichment score is inactive: 1.01.
For HSVLNYGVCVC [JAK2_Y613_L609S], the enrichment score is inactive: 0.639.
Consider KLIMECLPYGS [JAK2_Y931_Y931C], for which the enrichment score is inactive: 0.566.
ASTHIYQIMNH [ITK_Y588_V587I]: the enrichment score is inactive: 1.62.
With ENKGVYVLMSG [IVD_Y277], the enrichment score is inactive: 1.04.

The next assay has as its target SHP2 N-SH2 domain T42A. The description is as above. The settings on record: peptide library: pTyr-Var.
RRNEEYCLLAS [ITK_Y198_D202A]: the enrichment score is inactive: 0.16.
Still for that read-out and setting: to LIDGFYRLTAD [JAK2_Y373_YF] belongs inactive: 1.04; to VTRLRYPVCFG [ITK_Y336], inactive: 1.73; to SLIDGYYRLTE [JAK2_Y372_A377E], inactive: 0.706.
On the same count and under the same terms, to PLGVPYLDKPP [JMJD7_Y31_A28G] belongs inactive: 0.703; to MEKEKYVSYIS [JMJD1C_Y596], inactive: 0.782; to PLAVPYLDKPP [JMJD7_Y31], inactive: 0.882.
Regarding RRNEEYCLLDS [ITK_Y198], the enrichment score is inactive: 0.101.
On to LSVEIYDRREF [ITGB7_Y753_YF], for which the enrichment score was inactive: 0.775.
Regarding ENKGVYVPMSG [IVD_Y277_L279P], the enrichment score is inactive: 0.672.
With VEKEKYVSFIS [JMJD1C_Y596_M591V_YF], the enrichment score was inactive: 0.943.
On the same count and under the same terms, the figure for MEKEKYVSFIS [JMJD1C_Y596_YF] is inactive: 0.851; for HLVLNYGVCFC [JAK2_Y613_V617F] it is inactive: 1.54.
On the same count and under the same terms, to ASTHVYQIMNH [ITK_Y588] belongs inactive: 2.47.
On to WFPANYVKLLS [ITSN1_Y1132], for which the enrichment score is inactive: 2.01.
Still for that read-out and setting: to HSVLNYGVCVC [JAK2_Y613_L609S] belongs inactive: 0.667; to KLIMECLPYGS [JAK2_Y931_Y931C], inactive: 0.583; to ASTHIYQIMNH [ITK_Y588_V587I], inactive: 2.03.
On to ENKGVYVLMSG [IVD_Y277], for which the enrichment score was inactive: 1.05.

The next assay has as its target SHP2 N-SH2 domain T52S. The assay is described as above. The settings on record: peptide library: pTyr-Var.
Regarding RRNEEYCLLAS [ITK_Y198_D202A], the enrichment score was inactive: 0.287.
Still for that read-out and setting: the figure for LIDGFYRLTAD [JAK2_Y373_YF] is inactive: 1.57.
Same read-out and setting: to VTRLRYPVCFG [ITK_Y336] belongs inactive: 1.77.
Same read-out and setting: to SLIDGYYRLTE [JAK2_Y372_A377E] belongs inactive: 0.786; to PLGVPYLDKPP [JMJD7_Y31_A28G], inactive: 1.11.
Turning to MEKEKYVSYIS [JMJD1C_Y596], the enrichment score is inactive: 0.773.
Same read-out and setting: to PLAVPYLDKPP [JMJD7_Y31] belongs inactive: 0.987.
On the same count and under the same terms, to RRNEEYCLLDS [ITK_Y198] belongs inactive: 0.328; to LSVEIYDRREF [ITGB7_Y753_YF], inactive: 0.698.
Same read-out and setting: the figure for ENKGVYVPMSG [IVD_Y277_L279P] is inactive: 0.667.
Take VEKEKYVSFIS [JMJD1C_Y596_M591V_YF]: the enrichment score is inactive: 0.827.
Same read-out and setting: the figure for MEKEKYVSFIS [JMJD1C_Y596_YF] is inactive: 0.669; for HLVLNYGVCFC [JAK2_Y613_V617F] it is inactive: 1.76; for ASTHVYQIMNH [ITK_Y588] it is inactive: 1.09.
With WFPANYVKLLS [ITSN1_Y1132], the enrichment score is inactive: 1.38.
The same measure, in the same setting: to HSVLNYGVCVC [JAK2_Y613_L609S] belongs inactive: 0.784.
On the same count and under the same terms, to KLIMECLPYGS [JAK2_Y931_Y931C] belongs inactive: 0.644; to ASTHIYQIMNH [ITK_Y588_V587I], inactive: 1.65.
On the same count and under the same terms, the figure for ENKGVYVLMSG [IVD_Y277] is inactive: 1.11.

The target of a further assay is SHP2 N-SH2 domain wild-type. The description is as above. The settings on record: peptide library: pTyr-Var.
As for RRNEEYCLLAS [ITK_Y198_D202A], the enrichment score is inactive: 0.312.
The same measure, in the same setting: the figure for LIDGFYRLTAD [JAK2_Y373_YF] is inactive: 0.841; for VTRLRYPVCFG [ITK_Y336] it is inactive: 1.99; for SLIDGYYRLTE [JAK2_Y372_A377E] it is inactive: 0.76.
Still for that read-out and setting: to PLGVPYLDKPP [JMJD7_Y31_A28G] belongs inactive: 1.36; to MEKEKYVSYIS [JMJD1C_Y596], inactive: 0.707; to PLAVPYLDKPP [JMJD7_Y31], inactive: 1.05.
On the same count and under the same terms, to RRNEEYCLLDS [ITK_Y198] belongs inactive: 0.398; to LSVEIYDRREF [ITGB7_Y753_YF], inactive: 1.01; to ENKGVYVPMSG [IVD_Y277_L279P], inactive: 1.3.
VEKEKYVSFIS [JMJD1C_Y596_M591V_YF]: the enrichment score was inactive: 0.872.
As to MEKEKYVSFIS [JMJD1C_Y596_YF], the enrichment score was inactive: 0.787.
The same measure, in the same setting: the figure for HLVLNYGVCFC [JAK2_Y613_V617F] is inactive: 1.94.
Same read-out and setting: the figure for ASTHVYQIMNH [ITK_Y588] is inactive: 1.28.
Regarding WFPANYVKLLS [ITSN1_Y1132], the enrichment score was inactive: 1.15.
HSVLNYGVCVC [JAK2_Y613_L609S]: the enrichment score is inactive: 0.894.
Take KLIMECLPYGS [JAK2_Y931_Y931C]: the enrichment score is inactive: 0.837.
Take ASTHIYQIMNH [ITK_Y588_V587I]: the enrichment score was inactive: 1.33.
On the same count and under the same terms, to ENKGVYVLMSG [IVD_Y277] belongs inactive: 1.01.
